{"source": "the supplement of paper PMC8728848", "test_in_all_cases": "glycan array binding signal (z-score within array); higher = stronger binding", "settings_in_all_cases": "glycan notation: IUPAC condensed, linker removed", "key": {"[1]": {"target": "Fuc(a1-2)[Gal(a1-3)]Gal(b1-4)GlcNAc(b1-2)Man(a1-3)[Fuc(a1-2)[Gal(a1-3)]Gal(b1-4)GlcNAc(b1-2)Man(a1-6)]Man(b1-4)GlcNAc(b1-4)[Fuc(a1-6)]GlcNAc", "method_in_brief": "(§1)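 Negative Z-scores can be read as non-binding. The Z-score is calculated within each array and then averaged across arrays of one protein sequence at different concentrations or buffers and across linkers. Arrays, 3228 in all, were curated from the Consortium for Functional Glycomics database and kept only where the protein sequence was available.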"}, "[2]": {"target": "Fuc(a1-2)[Gal(a1-3)]Gal(b1-4)GlcNAc(b1-3)GalNAc", "method_in_brief": "as §1"}, "[3]": {"target": "Fuc(a1-2)[Gal(a1-3)]Gal(b1-4)GlcNAc(b1-6)GalNAc", "method_in_brief": "as §1"}, "[4]": {"target": "Fuc(a1-2)[Gal(a1-3)]Gal(b1-4)[Fuc(a1-3)]Glc", "method_in_brief": "as §1"}, "[5]": {"target": "Fuc(a1-2)[Gal(a1-3)]Gal(b1-4)[Fuc(a1-3)]GlcNAc", "method_in_brief": "as §1"}, "[6]": {"target": "Fuc(a1-2)[Gal(a1-3)]Gal(b1-4)[Fuc(a1-3)]GlcNAc(b1-3)GalNAc", "method_in_brief": "as §1"}, "[7]": {"target": "Fuc(a1-2)[Gal(a1-4)]Gal(b1-4)GlcNAc", "method_in_brief": "as §1"}, "[8]": {"target": "Fuc(a1-2)[GalNAc(a1-3)]Gal", "method_in_brief": "as §1"}, "[9]": {"target": "Fuc(a1-2)[GalNAc(a1-3)]Gal(b1-3)GalNAc(a1-3)[Fuc(a1-2)]Gal(b1-4)GlcNAc", "method_in_brief": "as §1"}, "[10]": {"target": "Fuc(a1-2)[GalNAc(a1-3)]Gal(b1-3)GalNAc(b1-3)Gal(a1-4)Gal(b1-4)Glc", "method_in_brief": "as §1"}, "[11]": {"target": "Fuc(a1-2)[GalNAc(a1-3)]Gal(b1-3)GlcNAc", "method_in_brief": "as §1"}, "[12]": {"target": "Fuc(a1-2)[GalNAc(a1-3)]Gal(b1-3)GlcNAc(b1-2)Man(a1-3)[Fuc(a1-2)[GalNAc(a1-3)]Gal(b1-3)GlcNAc(b1-2)Man(a1-6)]Man(b1-4)GlcNAc(b1-4)GlcNAc", "method_in_brief": "as §1"}, "[13]": {"target": "Fuc(a1-2)[GalNAc(a1-3)]Gal(b1-3)GlcNAc(b1-2)Man(a1-3)[Fuc(a1-2)[GalNAc(a1-3)]Gal(b1-3)GlcNAc(b1-2)Man(a1-6)]Man(b1-4)GlcNAc(b1-4)[Fuc(a1-6)]GlcNAc", "method_in_brief": "as §1"}, "[14]": {"target": "Fuc(a1-2)[GalNAc(a1-3)]Gal(b1-3)GlcNAc(b1-3)GalNAc", "method_in_brief": "as §1"}, "[15]": {"target": "Fuc(a1-2)[GalNAc(a1-3)]Gal(b1-3)GlcNAc(b1-6)GalNAc", "method_in_brief": "as §1"}, "[16]": {"target": "Fuc(a1-2)[GalNAc(a1-3)]Gal(b1-4)Glc", "method_in_brief": "as §1"}, "[17]": {"target": "Fuc(a1-2)[GalNAc(a1-3)]Gal(b1-4)GlcNAc", "method_in_brief": "as §1"}, "[18]": {"target": "Fuc(a1-2)[GalNAc(a1-3)]Gal(b1-4)GlcNAc(b1-2)Man", "method_in_brief": "as §1"}, "[19]": {"target": "Fuc(a1-2)[GalNAc(a1-3)]Gal(b1-4)GlcNAc(b1-2)Man(a1-3)[Fuc(a1-2)[GalNAc(a1-3)]Gal(b1-4)GlcNAc(b1-2)Man(a1-6)]Man(b1-4)GlcNAc(b1-4)GlcNAc", "method_in_brief": "as §1"}, "[20]": {"target": "Fuc(a1-2)[GalNAc(a1-3)]Gal(b1-4)GlcNAc(b1-2)Man(a1-3)[Fuc(a1-2)[GalNAc(a1-3)]Gal(b1-4)GlcNAc(b1-2)Man(a1-6)]Man(b1-4)GlcNAc(b1-4)[Fuc(a1-6)]GlcNAc", "method_in_brief": "as §1"}, "[21]": {"target": "Fuc(a1-2)[GalNAc(a1-3)]Gal(b1-4)GlcNAc(b1-3)Gal(b1-4)GlcNAc", "method_in_brief": "as §1"}, "[22]": {"target": "Fuc(a1-2)[GalNAc(a1-3)]Gal(b1-4)GlcNAc(b1-3)Gal(b1-4)GlcNAc(b1-3)Gal(b1-4)GlcNAc", "method_in_brief": "as §1"}, "[23]": {"target": "Fuc(a1-2)[GalNAc(a1-3)]Gal(b1-4)GlcNAc(b1-3)GalNAc", "method_in_brief": "as §1"}, "[24]": {"target": "Fuc(a1-2)[GalNAc(a1-3)]Gal(b1-4)GlcNAc(b1-3)[Fuc(a1-2)[GalNAc(a1-3)]Gal(b1-4)GlcNAc(b1-6)]GalNAc", "method_in_brief": "as §1"}, "[25]": {"target": "Fuc(a1-2)[GalNAc(a1-3)]Gal(b1-4)GlcNAc(b1-6)GalNAc", "method_in_brief": "as §1"}, "[26]": {"target": "Fuc(a1-2)[GalNAc(a1-3)]Gal(b1-4)[Fuc(a1-3)]GlcNAc", "method_in_brief": "as §1"}, "[27]": {"target": "Fuc(a1-2)[GalNAc(a1-3)]Gal(b1-4)[Fuc(a1-3)]GlcNAc(b1-3)GalNAc", "method_in_brief": "as §1"}, "[28]": {"target": "Fuc(a1-2)[GalNAc(a1-4)]Gal(b1-4)GlcNAc", "method_in_brief": "as §1"}, "[29]": {"target": "Fuc(a1-2)[GalNAc(b1-3)]Gal", "method_in_brief": "as §1"}, "[30]": {"target": "Fuc(a1-3)GlcNAc", "method_in_brief": "as §1"}, "[31]": {"target": "Fuc(a1-3)[Gal(b1-4)]Glc6S", "method_in_brief": "as §1"}, "[32]": {"target": "Fuc(a1-3)[Gal(b1-4)]GlcNAc", "method_in_brief": "as §1"}, "[33]": {"target": "Fuc(a1-3)[Gal(b1-4)]GlcNAc(b1-2)Man", "method_in_brief": "as §1"}, "[34]": {"target": "Fuc(a1-3)[Gal(b1-4)]GlcNAc(b1-2)Man(a1-3)[Fuc(a1-3)[Gal(b1-4)]GlcNAc(b1-2)Man(a1-6)]Man(b1-4)GlcNAc(b1-4)GlcNAc", "method_in_brief": "as §1"}, "[35]": {"target": "Fuc(a1-3)[Gal(b1-4)]GlcNAc(b1-2)Man(a1-3)[Fuc(a1-3)[Gal(b1-4)]GlcNAc(b1-2)Man(a1-6)]Man(b1-4)GlcNAc(b1-4)[Fuc(a1-6)]GlcNAc", "method_in_brief": "as §1"}, "[36]": {"target": "Fuc(a1-3)[Gal(b1-4)]GlcNAc(b1-3)Gal(b1-3)[Fuc(a1-4)]GlcNAc", "method_in_brief": "as §1"}, "[37]": {"target": "Fuc(a1-3)[Gal(b1-4)]GlcNAc(b1-3)Gal(b1-4)[Fuc(a1-3)]GlcNAc", "method_in_brief": "as §1"}}, "note": "The other results are listed elsewhere or left out.", "data": [{"binder": "CPA (Cicer arietinum) (protein) MAFSYLNLVLVTLTTLFFLQTTKVKSQKSVSFHITNFTISRPSITLQGTAEFLPNVLLLNDIEHPVFVVGRALYSKPITLWNNKTGKVASFVTSFTFDVQDLKKTVPGHGLVFFLAPSGSEIPFSSDGGNLGVVDGKNAFNRFVGVEFDNFVNSWDPKYSHVGINVNSLISTKTVKWNRVSGELVKVSIVYDSVSTTLTVIVTYKNGQISILSQLVDLKAVLPDTVNIGFSASTTLVSPRQLHNIHSWSFTSTFET", "values": [{"measurement": "glycan array binding signal (z-score)", "setting": "[1]", "result": 0.14}, {"measurement": "glycan array binding signal (z-score)", "setting": "[2]", "result": -0.133}, {"measurement": "glycan array binding signal (z-score)", "setting": "[3]", "result": -0.493}, {"measurement": "glycan array binding signal (z-score)", "setting": "[4]", "result": -0.056}, {"measurement": "glycan array binding signal (z-score)", "setting": "[5]", "result": -0.17}, {"measurement": "glycan array binding signal (z-score)", "setting": "[6]", "result": -0.222}, {"measurement": "glycan array binding signal (z-score)", "setting": "[7]", "result": 0.226}, {"measurement": "glycan array binding signal (z-score)", "setting": "[8]", "result": -0.562}, {"measurement": "glycan array binding signal (z-score)", "setting": "[9]", "result": -0.438}, {"measurement": "glycan array binding signal (z-score)", "setting": "[10]", "result": -0.86}, {"measurement": "glycan array binding signal (z-score)", "setting": "[11]", "result": -0.437}, {"measurement": "glycan array binding signal (z-score)", "setting": "[12]", "result": -0.219}, {"measurement": "glycan array binding signal (z-score)", "setting": "[13]", "result": -0.217}, {"measurement": "glycan array binding signal (z-score)", "setting": "[14]", "result": 3.66}, {"measurement": "glycan array binding signal (z-score)", "setting": "[15]", "result": -0.522}, {"measurement": "glycan array binding signal (z-score)", "setting": "[16]", "result": -0.626}, {"measurement": "glycan array binding signal (z-score)", "setting": "[17]", "result": -0.386}, {"measurement": "glycan array binding signal (z-score)", "setting": "[18]", "result": -0.629}, {"measurement": "glycan array binding signal (z-score)", "setting": "[19]", "result": 0.016}, {"measurement": "glycan array binding signal (z-score)", "setting": "[20]", "result": 0.023}, {"measurement": "glycan array binding signal (z-score)", "setting": "[21]", "result": -0.299}, {"measurement": "glycan array binding signal (z-score)", "setting": "[22]", "result": 0.719}, {"measurement": "glycan array binding signal (z-score)", "setting": "[23]", "result": -0.027}, {"measurement": "glycan array binding signal (z-score)", "setting": "[24]", "result": -0.38}, {"measurement": "glycan array binding signal (z-score)", "setting": "[25]", "result": -0.008}, {"measurement": "glycan array binding signal (z-score)", "setting": "[26]", "result": 0.059}, {"measurement": "glycan array binding signal (z-score)", "setting": "[27]", "result": 0.587}, {"measurement": "glycan array binding signal (z-score)", "setting": "[28]", "result": 1.3}, {"measurement": "glycan array binding signal (z-score)", "setting": "[29]", "result": -0.026}, {"measurement": "glycan array binding signal (z-score)", "setting": "[30]", "result": -0.573}, {"measurement": "glycan array binding signal (z-score)", "setting": "[31]", "result": 0.73}, {"measurement": "glycan array binding signal (z-score)", "setting": "[32]", "result": -0.407}, {"measurement": "glycan array binding signal (z-score)", "setting": "[33]", "result": -0.078}, {"measurement": "glycan array binding signal (z-score)", "setting": "[34]", "result": -0.405}, {"measurement": "glycan array binding signal (z-score)", "setting": "[35]", "result": 0.593}, {"measurement": "glycan array binding signal (z-score)", "setting": "[36]", "result": -0.467}, {"measurement": "glycan array binding signal (z-score)", "setting": "[37]", "result": -0.535}]}]}
